In the supplement of paper PMC8948288:
The sequences are guide strands of siRNAs; only the seed at positions 2 to 7 varies.

Tests used:
H4 = test: cell viability relative to siNT1 (ATP content); H4 human neuroglioma and GL261 mouse glioma; higher = less toxic; conditions: siRNA concentration 10 nM; 96 h; human
GL261 = test: as above; conditions: siRNA concentration 25 nM; 96 h; mouse
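Note: cells reverse transfected with siRNA duplexes via lipid reagent, ATP read by luminescence, triplicate wells, values scaled to mean viability with non-targeting control siNT1.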

Sequence	cell viability (H4) [%]	cell viability (GL261) [%]
UGACGGCACAUGUAAACCA	8.87	9.96
UGACGGGACAUGUAAACCA	43.1	7.43
UGACGGUACAUGUAAACCA	48	16
UGACGUAACAUGUAAACCA	112	70.5
UGACGUCACAUGUAAACCA	76.5	34.2
UGACGUGACAUGUAAACCA	88.3	51.5
UGACGUUACAUGUAAACCA	115	67.9
UGACUAAACAUGUAAACCA	75.6	46.4
UGACUACACAUGUAAACCA	71.3	24.1
UGACUAGACAUGUAAACCA	63	40
UGACUAUACAUGUAAACCA	75.9	47.5
UGACUCAACAUGUAAACCA	58.5	15.2
UGACUCCACAUGUAAACCA	20.7	4.14
UGACUCGACAUGUAAACCA	92.9	16.6
UGACUCUACAUGUAAACCA	53.3	7.49
UGACUGAACAUGUAAACCA	61.8	32.2
UGACUGCACAUGUAAACCA	7.36	18
UGACUGGACAUGUAAACCA	28.3	16.7
UGACUGUACAUGUAAACCA	23.9	16.4
UGACUUAACAUGUAAACCA	78.8	44.8

Sequence	cell viability (H4) [%]	cell viability (GL261) [%]
UGACUUCACAUGUAAACCA	48.5	20.1
UGACUUGACAUGUAAACCA	72.6	27.7
UGACUUUACAUGUAAACCA	63.2	32.2
UGAGAAAACAUGUAAACCA	100	49.6
UGAGAACACAUGUAAACCA	72	28.6
UGAGAAGACAUGUAAACCA	86.7	33
UGAGAAUACAUGUAAACCA	65.4	22.7
UGAGACAACAUGUAAACCA	95.7	27.4
UGAGACCACAUGUAAACCA	46.3	16.2
UGAGACGACAUGUAAACCA	85.9	33.6
UGAGACUACAUGUAAACCA	21.1	24.9
UGAGAGAACAUGUAAACCA	67.4	49.3
UGAGAGCACAUGUAAACCA	23	20.5
UGAGAGGACAUGUAAACCA	29.1	12.5
UGAGAGUACAUGUAAACCA	40.3	41.8
UGAGAUAACAUGUAAACCA	95.1	45.5
UGAGAUCACAUGUAAACCA	69	19.8
UGAGAUGACAUGUAAACCA	80.9	31.6
UGAGAUUACAUGUAAACCA	97.7	25.6
UGAGCAAACAUGUAAACCA	70.6	64.6

Sequence	cell viability (H4) [%]	cell viability (GL261) [%]
UGAGCACACAUGUAAACCA	55.3	9.14
UGAGCAGACAUGUAAACCA	57.4	25.2
UGAGCAUACAUGUAAACCA	62.6	24
UGAGCCAACAUGUAAACCA	49.7	35.9
UGAGCCCACAUGUAAACCA	4.29	6.54
UGAGCCGACAUGUAAACCA	45.2	19.7
UGAGCCUACAUGUAAACCA	36.7	13.7
UGAGCGAACAUGUAAACCA	77.9	34.3
UGAGCGCACAUGUAAACCA	88.6	22.4
UGAGCGGACAUGUAAACCA	42.4	13
UGAGCGUACAUGUAAACCA	56.2	33.1
UGAGCUAACAUGUAAACCA	67.7	41.8
UGAGCUCACAUGUAAACCA	46.4	10.5
UGAGCUGACAUGUAAACCA	42.4	13.8
UGAGCUUACAUGUAAACCA	43.1	11.2
UGAGGAAACAUGUAAACCA	57.9	21.1
UGAGGACACAUGUAAACCA	14.5	21.2
UGAGGAGACAUGUAAACCA	55.7	13.8
UGAGGAUACAUGUAAACCA	43	13.7
